Laboratory results taken from the supplement of paper PMC10369915.
Some of the results follow. Cut-off read from the data, not from the text of the source: active = 3.2 or more and inactive = the rest. Only a few entries rise above the background.

Tests used:
Assay in all cases: enrichment score (SH2-bound / input frequency) (ratio); bacterial display of known human phosphotyrosine sites (pTyr-Var adds point mutants) read by sequencing; higher = stronger binding; tyrosines were phosphorylated by kinases first
Details in all cases: peptide library: pTyr-Var
[1] = molecular target: SHP2 C-SH2 domain E139D
[2] = molecular target: SHP2 C-SH2 domain wild-type
[3] = molecular target: SHP2 N-SH2 domain L43F
[4] = molecular target: SHP2 N-SH2 domain T42A
[5] = molecular target: SHP2 N-SH2 domain T52S
[6] = molecular target: SHP2 N-SH2 domain wild-type
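Note: displayed peptides selected on beads carrying the immobilized SH2 domain, with library peptides lacking any tyrosine serving as negative controls.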

| Binder | enrichment score [1] | enrichment score [2] | enrichment score [3] | enrichment score [4] | enrichment score [5] | enrichment score [6] |
| --- | --- | --- | --- | --- | --- | --- |
| LQTYRYHGLSM [PDHA1_Y289_H292L] | inactive: 0.855 | inactive: 0.736 | inactive: 0.64 | inactive: 0.907 | inactive: 1.02 | inactive: 0.874 |
| SNSATYSGSVA [PDLIM5_Y382] | inactive: 0.387 | inactive: 0.309 | inactive: 0.38 | inactive: 0.333 | inactive: 0.356 | inactive: 0.337 |
| DPGVSYCTREE [PDHA1_Y301_R302C] | inactive: 0.726 | inactive: 0.583 | inactive: 0.685 | inactive: 0.407 | inactive: 0.45 | inactive: 0.683 |
| SDGHEYIYVDP [PDGFRB_Y579] | inactive: 0.389 | inactive: 0.493 | inactive: 0.379 | inactive: 0.43 | inactive: 0.365 | inactive: 0.394 |
| SNKLYYQLEQE [PDPR_Y110] | inactive: 1.01 | inactive: 0.8 | inactive: 0.769 | inactive: 0.749 | inactive: 0.933 | inactive: 1.02 |
| SDGHEYIFVDR [PDGFRB_Y579_P584R_YF] | inactive: 0.796 | inactive: 0.662 | inactive: 0.654 | inactive: 0.679 | inactive: 0.574 | inactive: 0.811 |
| SNKLHYQLEQE [PDPR_Y110_Y109H] | inactive: 0.739 | inactive: 0.568 | inactive: 0.58 | inactive: 0.519 | inactive: 0.679 | inactive: 0.592 |
| YIGVTYKNKED [PDGFRA_Y993_E996K] | inactive: 1.16 | inactive: 1.43 | inactive: 1.17 | inactive: 1.55 | inactive: 1.51 | inactive: 1.31 |
| RASQEYHIVKK [PDZD2_Y557_S552R] | inactive: 0.874 | inactive: 1.14 | inactive: 1.32 | inactive: 0.868 | inactive: 0.789 | inactive: 1.1 |
| LQTYRYHGHSM [PDHA1_Y289] | inactive: 0.87 | inactive: 1.14 | inactive: 1.02 | inactive: 0.81 | inactive: 0.69 | inactive: 1.19 |
| QKMADYSNKLF [PDPR_Y104_YF] | inactive: 0.613 | inactive: 0.634 | inactive: 0.951 | inactive: 0.908 | inactive: 0.641 | inactive: 0.578 |
| SLGSPYGQPPC [PDLIM4_Y137_R142C] | inactive: 0.586 | inactive: 0.668 | inactive: 0.622 | inactive: 0.474 | inactive: 0.524 | inactive: 0.83 |
| RLFARYFQGDL [PDK3_Y337_YF] | inactive: 0.507 | inactive: 0.433 | inactive: 0.385 | inactive: 0.328 | inactive: 0.416 | inactive: 0.523 |
| ASTDYNKRGDF [PDHA1_Y243_Y243N] | inactive: 0.54 | inactive: 0.532 | inactive: 0.409 | inactive: 0.422 | inactive: 0.495 | inactive: 0.551 |
| AASTDYNKRGD [PDHA1_Y242_Y243N] | inactive: 0.547 | inactive: 0.379 | inactive: 0.5 | inactive: 0.58 | inactive: 0.457 | inactive: 0.557 |
| SLGSPYEQPPR [PDLIM4_Y137_G138E] | inactive: 0.487 | inactive: 0.669 | inactive: 0.441 | inactive: 0.468 | inactive: 0.573 | inactive: 0.468 |
| AASTDYYKRGD [PDHA1_Y242] | inactive: 0.384 | inactive: 0.523 | inactive: 0.566 | inactive: 0.548 | inactive: 0.548 | inactive: 0.534 |
| LQTFHYHGHSM [PDHA1_Y289_R288H_YF] | active: 4.21 | active: 3.5 | active: 3.43 | inactive: 3.15 | active: 3.83 | active: 3.39 |
| SDGHEYIFVDP [PDGFRB_Y579_YF] | inactive: 1.15 | inactive: 0.69 | inactive: 0.716 | inactive: 0.662 | inactive: 0.71 | inactive: 0.525 |

| Binder | enrichment score [1] | enrichment score [2] | enrichment score [3] | enrichment score [4] | enrichment score [5] | enrichment score [6] |
| --- | --- | --- | --- | --- | --- | --- |
| PMQLPYDSRWE [PDGFRA_Y582] | inactive: 1.03 | inactive: 0.818 | inactive: 0.73 | inactive: 0.791 | inactive: 0.837 | inactive: 0.964 |
| FHKALYTVRTF [PDE6C_Y266_S270T_YF] | inactive: 0.747 | inactive: 0.64 | inactive: 0.629 | inactive: 0.403 | inactive: 0.566 | inactive: 0.745 |
| MHYSNYVSKGS [PDGFRA_Y849_D846Y] | inactive: 0.634 | inactive: 0.647 | inactive: 0.597 | inactive: 2.16 | inactive: 0.64 | inactive: 0.6 |
| PMQLPHDSTWE [PDGFRB_Y589_Y589H] | inactive: 1.14 | inactive: 0.983 | inactive: 1.11 | inactive: 0.569 | inactive: 0.893 | inactive: 1.38 |
| PDGHEYIYVDP [PDGFRA_Y572] | inactive: 0.73 | inactive: 0.712 | inactive: 0.824 | inactive: 0.914 | inactive: 0.931 | inactive: 0.455 |
| IQRSLYDCPAS [PDGFRA_Y762_R764C] | inactive: 0.689 | inactive: 0.69 | inactive: 0.591 | inactive: 0.715 | inactive: 0.644 | inactive: 0.786 |
| FIGVTYKNEED [PDGFRA_Y993_YF] | inactive: 1.65 | inactive: 1.2 | inactive: 1.47 | inactive: 1.46 | inactive: 1.47 | inactive: 1.38 |
| SNKLFYQLEQE [PDPR_Y110_YF] | inactive: 0.985 | inactive: 0.875 | inactive: 1.05 | inactive: 0.905 | inactive: 1.12 | inactive: 0.872 |
| FSNKLYFQLEQ [PDPR_Y109_YF] | inactive: 1.03 | inactive: 0.892 | inactive: 0.889 | inactive: 0.764 | inactive: 0.864 | inactive: 1.55 |
| SASQEYHIVKK [PDZD2_Y557] | inactive: 0.59 | inactive: 0.454 | inactive: 0.549 | inactive: 0.625 | inactive: 0.7 | inactive: 0.652 |
| LQTYHYHGHSM [PDHA1_Y289_R288H] | active: 3.92 | active: 3.62 | active: 4.19 | inactive: 3.16 | active: 4.66 | active: 4.05 |
| FIGVTYKNKED [PDGFRA_Y993_E996K_YF] | inactive: 1.61 | inactive: 1.15 | inactive: 1.28 | inactive: 1.36 | inactive: 1.69 | inactive: 1.34 |
| YSNKLHYQLEQ [PDPR_Y109_Y109H] | inactive: 0.73 | inactive: 0.593 | inactive: 0.772 | inactive: 0.674 | inactive: 0.676 | inactive: 0.822 |
| SLGSPYGQPPR [PDLIM4_Y137] | inactive: 0.619 | inactive: 0.478 | inactive: 0.51 | inactive: 0.464 | inactive: 0.498 | inactive: 0.636 |
| IQRSLYDRPAS [PDGFRA_Y762] | inactive: 0.63 | inactive: 0.633 | inactive: 0.62 | inactive: 0.565 | inactive: 0.605 | inactive: 1.08 |
| PMQLPYDSTWE [PDGFRB_Y589] | inactive: 0.767 | inactive: 0.663 | inactive: 0.737 | inactive: 0.764 | inactive: 0.611 | inactive: 0.829 |
| ASTDFNKRGDF [PDHA1_Y243_Y243N_YF] | inactive: 0.469 | inactive: 0.619 | inactive: 0.543 | inactive: 0.465 | inactive: 0.453 | inactive: 0.469 |
| QKMADYSNKLH [PDPR_Y104_Y109H] | inactive: 0.622 | inactive: 0.657 | inactive: 0.669 | inactive: 0.612 | inactive: 0.613 | inactive: 0.761 |
